Source: the supplement of paper PMC4723716
± gives the standard deviation of the averaged measurements. Whole data set: some 3,600 compounds, median “viability index relative to DMSO control” near 0.81, cut for the lowest 2% near 0.13. This is one part of the list.

tested on: Plasmodium falciparum NF54 stage V gametocytes; assay: viability index relative to DMSO control (fraction); higher = less gametocyte killing; settings: 1.25 µM, incubation time: 72 h
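Further: 384-well serum-free SaLSSA: MitoTracker Red CMXRos staining with saponin lysis, high-content imaging, treated-well particle count divided by plate-mean count of DMSO wells.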

Structure (SMILES)	viability index
Oc1ccccc1C=Nc1ccccc1[Te]c1ccccc1N=Cc1ccccc1O	0.0513
CCc1cc2c(cc1-c1csc(NC(=N)N)n1)C(C)(C)CCC2(C)C	0.759
C=CC1CN2CCC1CC2C(O)c1ccnc2ccccc12 (stereo not drawn)	0.751 ± 0.046
Cc1ccc2c(c1)C1CN(C)CCC1N2C(=O)c1cc2ccccc2o1 (stereo not drawn)	0.982
CN1CCN(c2ccc(NC(=O)Oc3ccccc3)cc2)CC1	0.798
C[C@@H]1C[C@@H]([C@H](O)CC2CC(=O)NC(=O)C2)C(=O)[C@@H](C)C1	0.308
CN1CCc2cc3c(c4c2C1Cc1ccccc1-4)OCO3 (stereo not drawn)	0.975
CC1CCC2C(C)C(=O)OC3OC4(C)CCC1C32OO4 (stereo not drawn)	0.5
COC(=O)c1ccc(Cn2cc(C=O)c3ccccc32)o1	0.971
O=c1cccc2n1CC1CC2CN(Cc2cccc(O)c2)C1 (stereo not drawn)	0.898
CCOC(=O)CC(C)(O)P(=O)(OC)OC (stereo not drawn)	1.28
CC(C)(C)C(/C=C/c1ccc(Cl)cc1Cl)n1nnnc1C1(Nc2ccc(Cl)cc2)CCCCC1 (stereo not drawn)	0.877
COc1ccc(C(Cc2ccccc2)NC2CN3CCC2CC3)cc1 (stereo not drawn)	1.19
O=C(Cn1c2ccccc2c(=O)c2ccccc21)Nc1ccc([N+](=O)[O-])c(Br)c1	0.815
N#CC1=C(N)Oc2c(c(=O)oc3ccccc23)C1c1ccoc1 (stereo not drawn)	1.08
CCCCCCCCCCCCn1ccc(=N)cc1	0.48
CCCCCCc1cc(O)c2c3c(c(=O)oc2c1)CCC(C)C3 (stereo not drawn)	0.588
c1ccc(CCNC2CCN(Cc3ccccc3)CC2)cc1	0.759
C=CC1CN2CCC1CC2[C@H](O)c1ccnc2ccc(O)cc12 (stereo partly drawn)	0.687
CCC1CN2CCC1CC2C(O)c1ccnc2ccccc12 (stereo not drawn)	0.712
C[n+]1c2n(c3ccccc31)N=C(c1ccccc1)C[Se]2	1.03

Structure (SMILES)	viability index
Clc1cccc(CNC2CCN(CCc3ccccc3)CC2)c1	0.939
O=C1Nc2ccccc2Sc2ccccc21	0.877
CCC(C)N1CCN(Cc2cccc(OC)c2OC)CC1 (stereo not drawn)	0.882
Cc1nc2ccccc2c(=O)n1-c1ccc([N+](=O)[O-])cc1	0.58
NC(=O)CN1CC(O)CC1=O (stereo not drawn)	0.0308
C=CC1CN2CCC1CC2C(OC(=O)c1ccco1)c1ccnc2ccccc12 (stereo not drawn)	0.46
OC1(c2ccc(Cl)c(C(F)(F)F)c2)CCN(CCOC2c3ccccc3CSc3ccc(Cl)cc32)CC1 (stereo not drawn)	0.589
CC(C)[C@@]1(NC(=O)[C@@H]2C[C@@H]3c4cccc5[nH]cc(c45)C[C@H]3N(C)C2)O[C@@]2(O)[C@@H]3CCCN3C(=O)[C@H](Cc3ccccc3)N2C1=O	0.74
N#Cc1cc(N2CC3CC(C2)c2cccc(=O)n2C3)c([N+](=O)[O-])cc1C#N (stereo not drawn)	1.11
CCCCCCn1c(=O)c(C(=O)NCC[N+](CC)(CC)CC)c(O)c2ccccc21	0.796
C=CC1CN2CCC1CC2C(OC(=O)C1CC1)c1ccnc2ccccc12 (stereo not drawn)	0.902
C=CC1CN2CCC1CC2[C@@H](OC(=O)c1ccc(OC)cc1)c1ccnc2ccccc12 (stereo partly drawn)	1.28
O=C(c1ccccc1)C1NC1c1ccc(Br)cc1 (stereo not drawn)	0.953
CSC(Cl)=C(NC(C)=O)[P+](c1ccccc1)(c1ccccc1)c1ccccc1	0.871
CCOC(=O)c1c(C)n(Cc2ccccc2)c2c1cc(O)c1c2c(-c2ccccc2)nn1-c1ccccc1	0.826
C=CC1CN2CCC1CC2[C@@H](OC(=O)c1ccc(C(C)(C)C)cc1)c1ccnc2ccc(OC)cc12 (stereo partly drawn)	1.02
CCN1CCN(c2c(Cl)cccc2NC(=O)C(Cl)(Cl)Cl)CC1	0.712
O=C1CN=C(c2ccccc2Cl)c2cc(Cl)ccc2N1Cc1cccc([N+](=O)[O-])c1	0.788
CC(C)N1CC=C(c2c[nH]c3ccccc23)CC1	0.887
CCCc1cc(O)c2c3c(c(=O)oc2c1)CN(C)CC3	0.552
CCn1c(C)cc(/C=C2\C(=O)NC(=O)N(c3cccc(Cl)c3)C2=O)c1C	1.12

Structure (SMILES)	viability index
C=CC1CN2CCC1CC2C(OC(C)=O)c1ccnc2ccc(OC)cc12 (stereo not drawn)	0.801
CC(C)NC(=O)c1cn(Cc2ccccc2)cc(C(=O)NCCc2nc3ccccc3[nH]2)c1=O	0.942
NC(=N[N+](=O)[O-])Nc1ccc(NC(=O)Nc2ccc(Cl)cc2)cc1	0.545
O=c1c2ccccc2nc(C=Cc2ccc([N+](=O)[O-])o2)n1-c1ccc(Br)cc1	0.718
C=CC1CN2CCC1C(C(O)c1ccnc3ccc(OC)cc13)C2 (stereo not drawn)	0.411
COc1cc(CN2CC3CC(C2)c2cccc(=O)n2C3)ccc1O (stereo not drawn)	1.05
CCN1CCC(N2CCC(n3c(Cc4ccccc4OC)nc4cc(F)ccc43)CC2)CC1	1.03
C=CC12CCN(CC1)C(C(O)c1ccnc3ccc(OC)cc13)C2 (stereo not drawn)	0.865
Cc1c2ccccc2c(C)c2ccccc12	1.04
Cc1ccc(NC=C2C(=O)NC(=S)NC2=O)cc1	1.01
CCOC(=O)CN(N=O)C1=C(N2CC2)C(=O)c2ccccc2C1=O	0.815
C=C[C@H]1CN2CC[C@H]1C[C@@H]2[C@@H](OC(=O)Cc1cccs1)c1ccnc2ccccc12	0.656
CCCCCCc1cc(O)c2c(c1)OC(C)(C)C1=C2CCN(C)C1	0.534
O=C(CCl)Nc1ccc(Cl)cc1	0.84
O=C(Nc1ccc(Cl)cc1)Oc1ccccc1	1.18
COc1ccccc1-n1c(C=Cc2cc(Br)ccc2O)nc2ccccc2c1=O	0.961
CCN1C(=Cc2sc3ccccc3[n+]2CC)[Se]c2ccccc21	0.595
COc1ccccc1N1CCN(Cc2cc(C)c(C)cc2O)CC1	0.748
OP1(O)=NP(O)(O)=NP(O)(O)=NP(O)(O)=N1	0.491
NC(=O)Cc1ccccc1	1.02
CCCCCc1cc(O)c2c3c(c(=O)oc2c1)CN(C)CC3	0.323
